# Results: PMC4336329 (PLoS ONE, 2015)
# Among all 310,000 compounds or so, about 2,200 (0.71%) showed an effect of 50% or more. Effects have a minus sign here. The list shows a part of the results.
# Biological target: human ether-à-go-go-related gene (hERG) potassium channel (human, UniProt Q12809)
# Assay: primary screen, population patch clamp on CHO cells stably expressing hERG
# human ether-à-go-go-related gene (hERG) potassium channel, sequence (Q12809 whole entry, looked up): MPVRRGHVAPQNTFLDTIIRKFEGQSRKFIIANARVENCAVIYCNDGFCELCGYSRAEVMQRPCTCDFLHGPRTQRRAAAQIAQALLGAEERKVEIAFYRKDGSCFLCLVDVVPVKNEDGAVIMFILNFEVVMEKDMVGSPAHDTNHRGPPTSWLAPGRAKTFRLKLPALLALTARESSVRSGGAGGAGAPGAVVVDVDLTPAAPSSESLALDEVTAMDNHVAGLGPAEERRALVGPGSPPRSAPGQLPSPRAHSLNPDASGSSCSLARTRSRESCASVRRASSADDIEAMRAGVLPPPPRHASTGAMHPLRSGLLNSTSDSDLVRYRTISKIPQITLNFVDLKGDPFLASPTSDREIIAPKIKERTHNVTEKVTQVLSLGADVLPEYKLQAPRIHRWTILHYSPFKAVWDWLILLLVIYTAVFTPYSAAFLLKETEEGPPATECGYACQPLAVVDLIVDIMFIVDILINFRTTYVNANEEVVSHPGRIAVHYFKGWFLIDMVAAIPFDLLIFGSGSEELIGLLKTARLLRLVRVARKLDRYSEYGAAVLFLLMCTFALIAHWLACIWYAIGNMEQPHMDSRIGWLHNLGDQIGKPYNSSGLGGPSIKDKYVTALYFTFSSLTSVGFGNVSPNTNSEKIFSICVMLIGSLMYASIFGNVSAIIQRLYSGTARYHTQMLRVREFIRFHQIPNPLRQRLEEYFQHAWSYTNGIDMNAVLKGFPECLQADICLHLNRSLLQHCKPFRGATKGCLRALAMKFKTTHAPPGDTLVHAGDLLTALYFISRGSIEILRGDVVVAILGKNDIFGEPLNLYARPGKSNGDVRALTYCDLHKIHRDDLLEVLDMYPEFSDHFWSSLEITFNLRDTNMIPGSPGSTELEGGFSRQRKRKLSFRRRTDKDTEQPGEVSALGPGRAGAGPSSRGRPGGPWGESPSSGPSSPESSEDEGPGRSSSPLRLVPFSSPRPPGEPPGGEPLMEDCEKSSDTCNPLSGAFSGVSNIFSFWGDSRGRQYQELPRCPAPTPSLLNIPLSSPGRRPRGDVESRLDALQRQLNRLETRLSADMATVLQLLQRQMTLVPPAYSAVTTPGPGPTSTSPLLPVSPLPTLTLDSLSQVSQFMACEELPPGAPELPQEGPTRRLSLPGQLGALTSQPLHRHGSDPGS
row,SMILES,"hERG current change (%, negative = inhibition) at 1uM"
1,O=C(CNC(=O)c1cccs1)N/N=C/c1cccc(Cl)c1,1.43%
2,Cc1ccc(C)c(NC(=O)CCn2cnnn2)c1,13.3%
3,CCOc1ccc(N(C(=O)c2snc(C(N)=O)c2N)C(C(=O)NC2CCCC2)C(C)C)cc1 (centres unmarked),14.7%
4,O=C(NCCSc1ccccc1)c1ccccc1Cl,10.7%
5,CC1(C)N=C(N)N=C(N)N1c1cccc(C(=O)O)c1.Cl,4.86%
6,CC1CCc2c(sc3ncnc(SCC(=O)c4ccccc4)c23)C1 (centres unmarked),18.2%
7,COc1cc(/C=N\NC(=O)c2ccc(-c3ccccc3)cc2)cc(Br)c1O,12.8%
8,Cc1ccc(NC(=O)Cn2nnc3ccccc32)c(C)c1,10.3%
9,CCCS(=O)(=O)NCCc1csc(-c2ccc(OC)c(OC)c2)n1,13%
10,CC(CNC(=S)Nc1cc(F)cc(F)c1)CSc1ccc(Cl)cc1 (centres unmarked),7.47%
11,CCCCOC(=O)c1ccc(NC(=O)C(=O)NCc2cccnc2)cc1,14.1%
12,COc1cccc(NC(=O)COC(=O)/C=C/c2ccco2)c1,8.74%
13,COc1cccc(/C=N/NC(=O)c2cccc(N3CCCC3=O)c2)c1,3.02%
14,C=Cn1cc[n+](CC(=O)c2ccc(Br)cc2)c1.[Br-],15.1%
15,CCOC(=O)[C@@H]1[C@H]2COc3ccc(Br)cc3[C@@H]2N2C(=O)N(c3cccc(C)c3)C(=O)[C@]12C,8.78%
16,CCc1ccc(OCCNc2cc(N3CCNC(C)C3)ccc2[N+](=O)[O-])cc1 (centres unmarked),13.6%
17,COCCCNC(=O)CSc1ccsc1[N+](=O)[O-],4.79%
18,C=CCOC(=O)C1=C[C@@H](c2ccc(C(F)(F)F)cc2)C[C@@H](OCc2ccc(CO)cc2)O1,18.3%
19,CCc1cc(=O)[nH]c(SCC(=O)N2CCC(Cc3ccccc3)CC2)n1,-3.78%
20,O=C(Nc1ccc2[nH]c(=S)sc2c1)Nc1ccccc1F,11.1%
21,Cc1ccc(C(=O)Nc2cccnc2)cc1S(=O)(=O)N1CCOCC1,11.3%
22,CCC[n+]1cn(/C(C(=S)Nc2cccc(Cl)c2C)=C(/[O-])c2ccc(OC)c(OC)c2)c2ccccc21,2.8%

row,SMILES,"hERG current change (%, negative = inhibition) at 1uM"
1,CCN(CC)S(=O)(=O)c1cccc(NC(=O)CN(C)Cc2cccc(OC)c2)c1.O=C(O)C(=O)O,-6.88%
2,Cc1cc(C)c(C(=O)O)c(CC(C)(C)C(=O)O)c1,17.2%
3,Cc1cc(C)nc(Sc2ccc(/C=C(\C#N)C(=O)Nc3ccccc3)o2)n1,13.4%
4,O=C(NCCC1=CCCCC1)c1c(O)nc2sccn2c1=O,10.7%
5,CN1CCC(=NNC(=O)CN(c2cccc(Cl)c2)S(C)(=O)=O)CC1,16.9%
6,CN(C)c1ccc(C(=O)Nc2ccc(S(=O)(=O)NC3=NCCCCC3)cc2)cc1,1.85%
7,Cc1ccc(N2CC(C(=O)Nc3c(C)n(C)n(-c4ccccc4)c3=O)CC2=O)cc1 (centres unmarked),10.6%
8,O=C(C1COc2ccccc2O1)N1CCN(Cc2ccc(Br)cc2F)CC1 (centres unmarked),2.23%
9,O=C1NNC(=O)C2C3C=CC(C4CC34)C12 (centres unmarked),-4.48%
10,COc1ccc(-n2c(Cn3c(=O)sc4ccccc43)nnc2SC)cc1,3.15%
11,COc1ccc(NS(=O)(=O)c2ccc(O)c(NC(=O)c3cc4c(C)nn(-c5ccc(F)cc5)c4s3)c2)cc1,12.6%
12,CCC/C(O)=C1\C(=O)CC(C)(C)CC1=NCCO,10.8%
13,Cc1cc(N2CCOCC2)nc2ccc(NC(=S)N3CCCCC3C)cc12 (centres unmarked),-3.58%
14,CC(=O)c1ccccc1Oc1ncnc(N)c1[N+](=O)[O-],29.5%
15,CCOc1ccc(CCNC(=O)Cn2nc(C)n3cccc3c2=O)cc1OCC,29.2%
16,COc1nccnc1NS(=O)(=O)c1ccc(NS(=O)(=O)c2ccc(NC(C)=O)cc2)cc1,3.87%
17,CCOC(=O)Cc1csc(N/C(=N/S(=O)(=O)c2cc(Br)ccc2OCC)c2ccccc2)n1,12.7%
18,COc1ccc(NC(NC(=O)c2cccnc2)C(Cl)(Cl)Cl)cc1 (centres unmarked),7.2%
19,CC(OC(=O)c1nc(Cl)ccc1Cl)C(=O)Nc1ccc2c(c1)OCCO2 (centres unmarked),10.9%
20,COc1ccc(C2CC(=O)N(CC(=O)NCC3CCCO3)c3ccccc3S2)cc1OC (centres unmarked),3.16%
21,Cn1cccc1-c1cc(C(=O)N2CCc3c([nH]c4ccccc34)C2c2ccccn2)[nH]n1 (centres unmarked),10.3%
22,COc1cccc(-c2c(C(=O)N/N=C/c3cccs3)nnn2-c2nonc2N)c1,20.7%

row,SMILES,"hERG current change (%, negative = inhibition) at 1uM"
1,C/C(Cl)=C\CSc1nnc2n(N)c(=O)c3ccccc3n12,-5.55%
2,O=[N+]([O-])c1cc(-n2cnnn2)ccc1N1CCC(Cc2ccccc2)CC1,-10.1%
3,Cc1[nH]n(-c2cccc(Cl)c2)c(=O)c1/C=N/n1c(C)nc2ccccc2c1=O,18.4%
4,CCNC(=S)NNC(=O)c1cc(-c2ccccc2C)nc2ccccc12,8.44%
5,O=C(NCC1CCCCC1)c1cc(S(=O)(=O)N2CCCCC2)ccc1N1CCOCC1,9.63%
6,c1csc(-c2nn3c(C4COc5ccccc5O4)nnc3s2)c1 (centres unmarked),16.5%
7,O=C(CNS(=O)(=O)c1ccc(Br)s1)NCc1ccc2c(c1)OCO2,-27.3%
8,S=c1[nH]nc(-c2ccccn2)n1/N=C/c1ccc(Cl)c(Cl)c1,6.06%
9,COc1ccc(C2N(c3ccc(Cl)cc3)N=C(C(C)=O)N(C)N2C(C)=O)cc1 (centres unmarked),11.8%
10,O=Cc1c[nH]c2ncccc12,11.9%
11,CCN1CCN(C(=O)c2ccccc2N(Cc2ccccc2)S(C)(=O)=O)CC1,7.94%
12,CC(C)C(c1nnnn1Cc1ccc(F)cc1)N1CCN(c2ccc(O)cc2)CC1 (centres unmarked),-11.8%
13,C[C@@H](NC(=O)c1nc[nH]c1C(=O)OCc1ccccc1)c1ccccc1,11%
14,O=c1[nH][nH]cc1C=Nc1ccc(Cl)cc1Cl,12%
15,COCCCNc1ncnc2c1sc1nc(-c3ccco3)c3c(c12)CC(C)(C)OC3,13.5%
16,O=C(CNc1cccc2ccccc12)N/N=C/c1ccccn1,3.94%
17,Cc1ccc(S(=O)(=O)N2CCOCC2)cc1C(=O)Nc1nc(-c2cccnc2)cs1,13.9%
18,CCc1ccc(-c2ccc(SCC(=O)NCC3CCCO3)nn2)cc1 (centres unmarked),-4.6%
19,CCOc1ccc(/C(O)=C2\C(=O)C(=O)N(c3cc(C)on3)C2c2ccccc2OC)cc1 (centres unmarked),8.91%
20,CCCCc1n[nH]c(=S)n1Cc1ccccc1,9.44%
21,Cc1nc(SCC(=O)NCc2ccco2)c2c(C)c(C)sc2n1,13.8%
22,CC(C)=CC(=O)Nc1ccccc1C(N)=O,18.1%

row,SMILES,"hERG current change (%, negative = inhibition) at 1uM"
1,COC(=O)C1CCN(Cc2cn(-c3ccccc3)nc2-c2ccc3c(c2)OCO3)CC1,9.1%
2,COc1ccc(/C=C/C(=O)N2CCCc3ccccc32)c(OC)c1,12.3%
3,COc1ccc(NC(=O)c2coc(C)c2)cc1,10.4%
4,CC(C)(C)c1ccc(NC(=O)COC(=O)c2ccc(NS(=O)(=O)c3ccc(F)c(F)c3)cc2)cc1,17.3%
5,CC(C)CN(C(=O)COC(=O)c1cc2c(s1)CCC2)C1CCS(=O)(=O)C1 (centres unmarked),14.8%
6,CCN(CC)c1ccc(/C=C2\C(=O)NC(=O)N(CC3CCCO3)C2=O)cc1 (centres unmarked),8.97%
7,Cc1nc(SCc2ccccc2C)n[nH]1,10.2%
8,COc1ccccc1CNC(=O)/C=C/c1ccc(S(=O)(=O)N2CCOCC2)cc1,6.34%
9,O=c1c(Oc2ccccc2Br)c(C(F)(F)F)oc2c(CN3CCCC3)c(O)ccc12,3.14%
10,COc1ccc(OC)c2c1CCC1NCCOC21.Cl (centres unmarked),13.9%
11,COc1cc(NC(=O)C2=CC(c3ccc(C)cc3)=NS(=O)(=O)N2C)cc(OC)c1OC,4.2%
12,Cc1nc2nc(-c3cccnc3)[nH]n2c(=O)c1Cc1ccccc1,-5.95%
13,CC(C(=O)NCc1ccco1)n1ccc2cc(S(=O)(=O)N3CCCC3)ccc21 (centres unmarked),11.8%
14,Cc1cc(OC(=O)c2c(C)cc(OC(=O)c3c(C)cc(O)cc3O)cc2O)cc(O)c1C(=O)O,12.4%
15,COC(=O)c1cc2ccsc2n1CC(=O)Nc1cc(C)cc(C)c1,13.4%
16,Cc1ccc(C(=O)N/C(=C\c2cccs2)C(=O)NC2CCCCC2)cc1,-6.09%
17,Cc1c(NS(=O)(=O)c2cccc(C(=O)Nc3ccccc3)c2)c(=O)n(-c2ccccc2)n1C,5.73%
18,O=C(NC1CCCCCC1)C1CCN(S(=O)(=O)c2cccc3cccnc23)CC1,7.11%
19,Cc1sc(-n2c(C)cc(C=C3C(=O)NC(=O)NC3=O)c2C)c(C#N)c1C,11.2%
20,COc1ccc(OC)c(C(=O)COC(=O)CNC(=O)c2ccccc2)c1,3.56%
